Results as given in the antibiotic and cytotoxicity screens of Wong et al. (2023).
The list shows a part of the results.

Assays:
[1] = tested on: HSkMC (human skeletal muscle cells); experiment: cytotoxicity call (relative viability < 0.9); conditions: 10 µM
[2] = tested on: HepG2; experiment: cytotoxicity call (relative viability < 0.9); conditions: 10 µM
[3] = tested on: S. aureus RN4220; experiment: growth inhibition call (relative growth <= 0.2); conditions: 50 µM

C=CCC[C@@H](Cc1ccc(F)cc1)C(=O)OC[C@@H](Cc1c[nH]c2ccccc12)NC(=O)[C@@H](CC=C)CC(=O)N[C@H](CO)Cc1ccccc1
inactive: cytotoxicity call [1] | cytotoxicity call [2] | growth inhibition call [3]

C[C@H](CO)N1C[C@H](C)[C@@H](CN(C)C(=O)CN(C)C)Oc2cc(C#Cc3cccnc3)ccc2S1(=O)=O
inactive: cytotoxicity call [1] | cytotoxicity call [2] | growth inhibition call [3]

Cc1cc2nc(C(=O)NC[C@H]3CCCS(=O)(=O)C3)cc(-c3ccccc3Cl)c2c(C)c1-c1ccncc1
inactive: cytotoxicity call [1] | cytotoxicity call [2] | growth inhibition call [3]

Cc1ccc(S(=O)(=O)Nc2ccc3c(c2)C(=O)N([C@H](C)CO)C[C@@H](C)[C@@H](CN(C)S(=O)(=O)c2ccc(F)cc2)OCCCC[C@@H](C)O3)cc1
inactive: cytotoxicity call [1] | cytotoxicity call [2] | growth inhibition call [3]

COCC(=O)Nc1ccc2c(c1)OC[C@H](C)N(Cc1ccccc1OC)C[C@H](C)[C@@H](OC)CN(C)C2=O
inactive: cytotoxicity call [1] | cytotoxicity call [2] | growth inhibition call [3]

COc1ccc(NC(=O)N(C)C[C@H]2OCCCC[C@H](C)Oc3ccc(NC(=O)NC4CCCCC4)cc3C(=O)N([C@@H](C)CO)C[C@H]2C)cc1
inactive: cytotoxicity call [1] | cytotoxicity call [2] | growth inhibition call [3]

Cc1ccc(S(=O)(=O)N(C)C[C@H]2OCCCC[C@@H](C)Oc3ccc(NS(C)(=O)=O)cc3C(=O)N([C@H](C)CO)C[C@@H]2C)cc1
inactive: cytotoxicity call [1] | cytotoxicity call [2] | growth inhibition call [3]

CC(C)NC(=O)N(C)C[C@@H]1OCCCC[C@@H](C)Oc2ccc(NC(=O)Nc3cccc4ccccc34)cc2C(=O)N([C@@H](C)CO)C[C@H]1C
inactive: cytotoxicity call [1] | cytotoxicity call [2] | growth inhibition call [3]

COc1ccc(NC(=O)Nc2ccc3c(c2)C(=O)N([C@H](C)CO)C[C@@H](C)[C@H](CN(C)S(=O)(=O)c2cccs2)OCCCC[C@H](C)O3)cc1
inactive: cytotoxicity call [1] | cytotoxicity call [2] | growth inhibition call [3]

COCCNC(=O)C[C@@H]1C[C@H]2c3cc(NC(=O)CN(C)C)ccc3O[C@H]2[C@H](CO)O1
inactive: cytotoxicity call [1] | cytotoxicity call [2] | growth inhibition call [3]

C[C@@H]1CN([C@@H](C)CO)C(=O)c2cc(NC(=O)c3ccccc3)ccc2O[C@@H](C)CCCCO[C@H]1CN(C)Cc1ccc(C(=O)O)cc1
inactive: cytotoxicity call [1] | cytotoxicity call [2] | growth inhibition call [3]
